Experimental data taken from publication PMC4336329 (PLoS ONE, 2015).
About 14,000 (4.5%) of roughly 310,000 compounds showed an effect of 50% or more. Effects have a minus sign here. This is one part of the list.

Biological target: human ether-à-go-go-related gene (hERG) potassium channel (human, UniProt Q12809)
Test: primary screen, population patch clamp on CHO cells stably expressing hERG
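Note: peak tail current of the secondary pulse compared with the same well before compound.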

Chain of human ether-à-go-go-related gene (hERG) potassium channel (Q12809 whole entry, looked up): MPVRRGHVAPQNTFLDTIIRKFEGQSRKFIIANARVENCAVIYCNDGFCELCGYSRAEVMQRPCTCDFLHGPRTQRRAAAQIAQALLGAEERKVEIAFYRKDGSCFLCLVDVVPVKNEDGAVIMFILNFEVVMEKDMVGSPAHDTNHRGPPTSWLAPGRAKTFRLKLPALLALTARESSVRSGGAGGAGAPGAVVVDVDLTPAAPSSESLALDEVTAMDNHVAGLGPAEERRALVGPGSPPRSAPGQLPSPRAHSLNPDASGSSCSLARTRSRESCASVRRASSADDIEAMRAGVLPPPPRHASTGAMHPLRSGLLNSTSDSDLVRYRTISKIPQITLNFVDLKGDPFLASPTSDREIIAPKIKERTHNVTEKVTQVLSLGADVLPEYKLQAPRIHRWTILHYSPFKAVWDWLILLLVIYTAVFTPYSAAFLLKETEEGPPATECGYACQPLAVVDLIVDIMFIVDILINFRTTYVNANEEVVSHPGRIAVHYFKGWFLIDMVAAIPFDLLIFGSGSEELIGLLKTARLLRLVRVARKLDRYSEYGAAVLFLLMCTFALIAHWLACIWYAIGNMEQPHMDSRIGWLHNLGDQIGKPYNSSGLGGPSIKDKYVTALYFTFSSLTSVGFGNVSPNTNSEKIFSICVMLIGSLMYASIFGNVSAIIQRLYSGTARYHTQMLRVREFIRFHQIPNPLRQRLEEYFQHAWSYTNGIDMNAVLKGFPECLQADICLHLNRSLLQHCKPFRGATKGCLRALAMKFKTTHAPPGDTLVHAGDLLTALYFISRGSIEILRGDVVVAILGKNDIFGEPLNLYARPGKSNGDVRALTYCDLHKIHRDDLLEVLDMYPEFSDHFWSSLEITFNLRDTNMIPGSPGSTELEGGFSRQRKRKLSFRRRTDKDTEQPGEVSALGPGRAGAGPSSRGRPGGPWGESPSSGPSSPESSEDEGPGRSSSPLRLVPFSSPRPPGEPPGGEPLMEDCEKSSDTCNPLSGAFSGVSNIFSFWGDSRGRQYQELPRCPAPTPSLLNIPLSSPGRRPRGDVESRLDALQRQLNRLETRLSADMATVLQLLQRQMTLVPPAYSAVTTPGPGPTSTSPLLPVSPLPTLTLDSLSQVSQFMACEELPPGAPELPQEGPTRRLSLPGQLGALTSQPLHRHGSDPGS

Compound	hERG current change (%, negative = inhibition) at 10uM
O=C(Nc1cccc(C(=O)N2CCCCC2)c1)c1ccccc1Br	-24.4%
CN(CC(=O)Nc1ccncc1)S(=O)(=O)c1ccc(Br)cc1	-17.9%
CCOc1ccc(CSc2nc(C)cc(COC)c2C#N)cc1OCC	14.5%
O=C(NCCCc1ccccc1)C1CCN(c2nnc(-n3cccc3)s2)CC1	-27%
COCC(=O)N1CCC(Oc2ccc(C(=O)N(C)Cc3nccs3)cc2)CC1	3.28%
COc1ccc(N2C(=O)CSC(c3ccccc3)C2=O)cc1 (stereo not shown)	21.3%
Cc1ccc(NC(=O)C(C)c2cccc(C(=O)c3ccccc3)c2)cc1O (stereo not shown)	-26.8%
Cc1ccc(/C=N/NC(=O)CN2CCN(Cc3ccccc3Cl)CC2)o1	-23.5%
O=C(NCCN1CCN(C(=O)c2ccc(F)cc2)CC1)C(=O)NCc1ccccc1	-73.9%
CC(=O)Nc1ccc(S(=O)(=O)N2CCN(C(=O)c3ncoc3-c3ccc(C)cc3)CC2)cc1	6.74%
OCC1(Cc2ccccc2C(F)(F)F)CCN(Cc2ccccc2)CC1	-41.3%
CCOC(=O)C1=C(N)c2ccccc2CC1C(C)C (stereo not shown)	1.14%
Cl.Oc1ccc(Cl)cc1CNCc1ccc(Cl)nc1	-6.22%
Cc1cc(C)n2nc(C(=O)OC(C)C(=O)c3cc(C)c(C)cc3C)nc2n1 (stereo not shown)	-40%
O=C(Nc1ccncc1)Nc1ccccc1Cl	-1.45%
CC(=O)NC(=O)c1ccc(-c2ccc(Cl)cc2)o1	11.7%
O=C1C=C(c2cc(C(F)(F)F)cc(C(F)(F)F)c2)C[C@@H](c2ccc(Cl)cc2)C1	22.3%
CSc1nc2nccc(/C=C\c3ccccc3)n2n1	-33.6%
CCOc1ccc(C(=O)Nc2nnc(SCC(=O)NCC3CCCO3)s2)cc1OCC (stereo not shown)	9.52%
Cc1ccc(C)c(-n2c(SCC(=O)Nc3nnc(C)s3)nnc2-c2ccoc2C)c1	5.96%
CCOC(=O)c1sc(=S)n(-c2cc(OC)ccc2OC)c1N	11.6%
O=C(Cn1cnc2c(cnn2-c2ccccc2)c1=O)Nc1cc(S(=O)(=O)N2CCOCC2)ccc1Cl	-32.2%

Compound	hERG current change (%, negative = inhibition) at 10uM
CC1CCCC(NC(=O)CCC(=O)c2ccc(F)cc2)C1C (stereo not shown)	8.27%
CCCCc1nc2cc(C(=O)NCc3ccccn3)ccc2o1	2.61%
CN(C)c1cc(-c2ccc(Cl)cc2Cl)oc(=O)c1Cl	0.166%
CSc1cc(C)nc(NC(C)=O)n1	10.4%
O=C(Cc1ccc(Cl)cc1)NNC(=O)C1CC=CCC1C(=O)O (stereo not shown)	20.9%
CCOC(=O)N1CCN(S(=O)(=O)c2cc([N+](=O)[O-])ccc2C)CC1	-14.4%
Cc1c(NC(=O)CSc2ccc3ccccc3n2)c(=O)n(-c2ccccc2)n1C	-21.1%
O=C(Sc1ccc(Cl)cc1)c1cccc(Cn2cc(C(F)(F)F)ccc2=O)c1	18.6%
Cc1cccc(NC(=O)C2CC3CCC2C3)c1C (stereo not shown)	15.1%
Cc1ccc(NC(=O)c2ccc(=O)[nH]n2)cc1S(=O)(=O)Nc1ccccc1Cl	8.7%
O=C1COc2ccc(C(=O)CSc3nnc(Cc4ccccc4)o3)cc2N1	-3.32%
Cc1nn(C)c(C)c1/C=N/NC(=O)CCn1nc(C)c([N+](=O)[O-])c1C	5.43%
Fc1ccccc1C1CCN(Cc2nc(COc3ccccc3)no2)C1 (stereo not shown)	-9.99%
CCOC(=O)c1sc(=NC(=O)COc2ccccc2)n(C)c1C	4.66%
O=C(O)CCCn1cc(NC(=O)c2sc3ccccc3c2Cl)cn1	24.5%
O=C(Nc1ccc(C2=NCCN2)cc1)c1ccc(C(=O)Nc2ccc(C3=NCCN3)cc2)c(Cl)c1	10.4%
CC(NC(=O)C1CC=CCC1C(=O)O)C1CC2CCC1C2 (stereo not shown)	15.5%
COc1ccc(OCCN2CCN(C(=O)c3ccc(OC(F)F)c(OC)c3)CC2)cc1	-72.6%
Cc1ccc(C)c(Nc2cc(C)nc3ccccc23)c1	-49.5%
CCOc1ccc(NC(=O)Cn2ncc3ccccc32)cc1	11.6%
CC(C#N)Sc1nnc(Nc2ccccc2)s1 (stereo not shown)	7.3%
COC(=O)c1ccc(/C=N\NC(=O)c2c(C)nc3ccc(Cl)cn23)cc1	24.7%

Compound	hERG current change (%, negative = inhibition) at 10uM
COCCn1c(SCC(=O)Nc2cccnc2Cl)nc2cc(Cl)ccc2c1=O	-29.6%
COCCCN(Cc1ccco1)C(=O)Cn1ncc2c([nH]c3ccccc32)c1=O	-24.1%
OCCC1CN(Cc2ccc3ncccc3c2)CCN1Cc1ccccc1 (stereo not shown)	-14.8%
Cc1ccc(-n2ncc3c(SCc4ccccc4)ncnc32)cc1	15.2%
COc1ccc(Nc2ccc(S(=O)(=O)N3CCCCC3)cc2[N+](=O)[O-])cc1	2.22%
CCOC(=O)c1cnc2c(OC)cccc2c1Nc1ccc2c(c1)OCCO2	-56.3%
NC(=O)c1cc2n(n1)C(C(F)(F)F)CC(c1ccco1)N2 (stereo not shown)	-7.54%
COc1ccc(C(=O)N/N=C/c2cc(Br)ccc2O)cc1OC	8.67%
Cc1cccc(N2CCN(C(=O)c3cccc(N4C(=O)C5C6C=CC(C6)C5C4=O)c3)CC2)c1C (stereo not shown)	4.35%
O=C(O)Cn1nc2ccccc2n1	27.9%
CC1=NN(C(N)=S)C(=O)C1N=Nc1c(C)cc(C)cc1C (stereo not shown)	20.8%
O=C(NC1CCCCC1)C(c1ccc(F)cc1)N(Cc1cccs1)C(=O)CN1C(=O)c2ccccc2S1(=O)=O (stereo not shown)	10.9%
CC(NC(=O)COC(=O)/C=C/c1ccc([N+](=O)[O-])cc1)c1ccccc1 (stereo not shown)	4.05%
Cc1oc2ccc(OC(=O)N(C)C)cc2c1C(=O)OC(C)C	-11.8%
CC(C)CN(CC(C)C)CC(O)COc1ccccc1Br.Cl (stereo not shown)	-28.4%
O=C1CSc2ccc(S(=O)(=O)NCc3ccc(F)cc3)cc2N1	-10.8%
O=S(=O)(/N=C(/Nc1cccc2ccccc12)c1ccccc1)c1ccc(F)cc1	17.1%
COc1cccc(NS(=O)(=O)c2cc(C)ccc2OC)c1	14.7%
COc1ccc(/C=C2\SC(=S)N(CCCC(=O)Nc3ccc(O)cc3)C2=O)cc1	-1.7%
O=C(O)C1CCN(c2nc(-c3ccccc3)c3cc(Br)ccc3n2)CC1	2.45%
CCOC(=O)C1C(c2ccc(O)c(OC)c2)NC(=S)NC1(O)C(F)(F)F (stereo not shown)	1.84%
O=C(CSc1nncs1)NC(=O)NCc1ccccc1	4.47%

Compound	hERG current change (%, negative = inhibition) at 10uM
FCCCOc1ccc(-c2ccnc3ncnn23)cc1	7.21%
COc1cccc(-c2ccc(NC(=O)C3CCCN(Cc4cnn(C)c4)C3)cc2)c1 (stereo not shown)	-37%
Cc1cc2c(=O)n(CC(=O)NCC(=O)N3CCN(Cc4ccccc4)CC3)cnc2s1	8.01%
COc1ccccc1Oc1ncnc2c1oc1ccccc12	8.62%
O=c1[nH]c(C2CCCN(S(=O)(=O)c3cccc(Cl)c3)C2)nc2c1nnn2Cc1ccc2c(c1)OCCO2 (stereo not shown)	10.9%
O=C(NCN1CCOCC1)c1cnccn1	16.4%
COc1ccc(NC(=O)c2oc3ccccc3c2NC(=O)C2CC2)c(OC)c1	14.5%
FC(F)Sc1ccc(NC(=S)NCC2CCCCC2)cc1	4.42%
Cc1cccc(N2CCN(C(=O)c3ccccc3OCc3c(C)noc3C)CC2)c1C	-37.6%
Cc1nn(Cc2ccc(Cl)cc2)c(C)c1NC(=O)/C=C/c1cnn(C)c1	-17%
CCN1CN(CCc2ccccc2)CNC1=S	5.61%
Cc1cc(C)c(-n2c(C)cc(/C=C3/NC(=O)NC3=O)c2C)c(C)c1	-9.75%
COC(=O)c1ccc(-c2noc(CN(C)CC3CCCCO3)n2)cc1 (stereo not shown)	11.3%
COc1cc(/C=C/C(=O)NC2CCCCC2)cc(OC)c1OC	6.84%
O=C(CCN1C(=O)C2C3C=CC(C3)C2C1=O)Nc1ccccn1 (stereo not shown)	1.18%
O=C(c1cc(-c2cccc(Cl)c2)on1)N1CCN(c2ccccc2)CC1	5.78%
CC1CCN(S(=O)(=O)c2cccc(-c3cn4cc(Cl)ccc4n3)c2)CC1	-5.86%
O=C(CSc1nnc(-c2ccncc2)n1Cc1ccco1)Nc1nccs1	-27%
CC(=O)Nc1ccc(Nc2cc(C(C)C)nc3c(-c4ccccc4)c(C)nn23)cc1	8.28%
O=C(CSc1nnc(CCCN2C(=O)c3cccc4cccc(c34)C2=O)n1-c1ccccc1)N1CCCCC1	-38.2%
COc1cccc(-c2nc(CS(=O)(=O)CC(=O)NCCCN3C(C)CCCC3C)c(C)o2)c1 (stereo not shown)	4.82%
COc1ccc(CCNC(=O)C(=O)NCC2CCCN2S(=O)(=O)c2cc(C)ccc2C)cc1 (stereo not shown)	-26.9%
